Test results reported in PubChem BioAssay AID504332 (National Center for Advancing Translational Sciences (NCATS), 2011).
Hit rate of the full screen: of about 350,000 compounds, about 31,000 (8.9%) were called active. This list was built around the results that the source calls inconclusive (neither active nor inactive); the mix of calls is not that of the screen. The call rests on the fitted dose curve; in most records, active means well fitted inhibition curve with a large enough effect; inconclusive means small, poorly fitted or top-dose-only effect; inactive means no such curve, though single readings can be large or run the other way. A potency beside an inconclusive call is a rough fit, not a confirmed value.
Further: nearly all actives have a fitted effect of over 75% in size.
On the % scale 0 is the no-effect control and ±100 the full control effect; potency means the concentration at half of the fitted maximal effect; tags describe the fitted curve by direction and shape.

The molecules below were run against Histone-lysine N-methyltransferase EHMT2 (Homo sapiens) (UniProt Q96KQ7) (assay: qHTS Assay for Inhibitors of Histone Lysine Methyltransferase G9a). Conditions: G9a H3K9 monomethylation, AlphaScreen, 2 h; activity, negative = inhibition: at 59 µM (top of the series) unless noted.
UniProt Q96KQ7, sequence (Q96KQ7 whole entry, looked up): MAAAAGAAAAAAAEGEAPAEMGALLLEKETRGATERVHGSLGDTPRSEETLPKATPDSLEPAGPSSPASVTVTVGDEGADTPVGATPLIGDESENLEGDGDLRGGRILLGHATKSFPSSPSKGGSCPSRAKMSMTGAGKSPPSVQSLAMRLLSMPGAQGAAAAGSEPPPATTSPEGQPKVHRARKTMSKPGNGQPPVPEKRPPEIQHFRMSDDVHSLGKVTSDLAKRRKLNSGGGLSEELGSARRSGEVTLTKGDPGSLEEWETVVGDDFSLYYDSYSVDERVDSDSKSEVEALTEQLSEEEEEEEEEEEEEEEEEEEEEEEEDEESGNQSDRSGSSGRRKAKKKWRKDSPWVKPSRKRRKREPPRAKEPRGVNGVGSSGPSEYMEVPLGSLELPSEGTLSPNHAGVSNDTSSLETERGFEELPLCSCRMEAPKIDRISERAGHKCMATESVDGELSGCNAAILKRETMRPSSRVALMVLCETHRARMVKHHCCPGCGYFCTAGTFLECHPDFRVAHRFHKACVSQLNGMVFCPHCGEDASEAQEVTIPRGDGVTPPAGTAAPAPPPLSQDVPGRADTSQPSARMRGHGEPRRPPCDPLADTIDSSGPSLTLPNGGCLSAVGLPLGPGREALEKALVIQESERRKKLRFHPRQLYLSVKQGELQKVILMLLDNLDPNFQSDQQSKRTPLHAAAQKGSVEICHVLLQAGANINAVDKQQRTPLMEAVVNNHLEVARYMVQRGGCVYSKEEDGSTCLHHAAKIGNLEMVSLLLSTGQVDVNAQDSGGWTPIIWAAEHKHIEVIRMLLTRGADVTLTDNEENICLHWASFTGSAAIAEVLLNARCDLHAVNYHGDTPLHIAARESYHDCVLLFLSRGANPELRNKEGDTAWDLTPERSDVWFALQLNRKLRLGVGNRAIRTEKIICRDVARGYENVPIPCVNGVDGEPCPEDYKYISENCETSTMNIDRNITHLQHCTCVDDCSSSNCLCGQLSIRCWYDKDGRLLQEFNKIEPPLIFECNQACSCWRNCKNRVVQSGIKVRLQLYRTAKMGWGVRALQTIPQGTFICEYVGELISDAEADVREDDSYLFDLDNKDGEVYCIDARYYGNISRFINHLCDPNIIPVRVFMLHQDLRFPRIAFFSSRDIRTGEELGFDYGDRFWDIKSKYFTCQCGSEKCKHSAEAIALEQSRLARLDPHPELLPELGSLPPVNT
In short: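 Enzyme 20 nM + cpd, 15 min RT; add b-H3K9 pep 500 nM / SAM 20 uM; 2 h RT; anti-H3K9me1 Ab 0.5 ug/mL + SA donor / anti-rabbit acceptor beads 20 ug/mL each, 10 min; AlphaScreen read.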
For `Oc1[nH]c(=S)sc1C=C1N=c2ccccc2=N1`, the Potency was inconclusive: 50.1 µM [inhibitor, partial curve].
`CCc1ccc2[nH]c(C(=O)Nc3ccc4c(c3)OCO4)cc2c1` was tested, and the Potency was active: 22.4 µM.
In the case of `Cc1cccc(NC(=O)C2SC(=Nc3c(C)cccc3C)C(C(=O)N3CCOCC3)=C2N)c1` (centres undefined), the Potency is reported as active: 1.58 µM.
For `CN(C)CCCN(C(=O)c1ccc(S(=O)(=O)N2CCc3ccccc3C2)cc1)c1nc2c(F)cc(F)cc2s1`, the Potency was active: 35.5 µM.
In the case of `COc1ccc(S(=O)(=O)N(Cc2ccc(OC)c(OC)c2)Cc2ccco2)cc1`, the Potency is reported as active: 50.1 µM.
In the case of `COC(=O)c1[nH]c2cc(C)ccc2c1NC(=O)CN1CCCc2ccccc21`, the Potency is reported as inconclusive: 35.5 µM [inhibitor, partial curve, poor fit].
With `O=C(Nc1ccc(Nc2ccccc2)cc1)c1ccco1` the activity, negative = inhibition was inconclusive: -64.2% [inhibitor].
In the case of `COc1ccc(N(CC(=O)NCc2ccc(F)cc2)S(=O)(=O)c2c(C)n[nH]c2C)cc1`, the Potency is reported as “inactive”.
With `O=C(c1ccc(CS(=O)Cc2ccc(Cl)cc2)o1)N1CCN(c2ccc(F)cc2)CC1` (centres undefined) the Potency was inconclusive: 89.1 µM [inhibitor, single point].
For `CCc1ccc2nc(N(CCCN(C)C)C(=O)c3ccc(S(=O)(=O)N4CCCC4)cc3)sc2c1`, the Potency was active: 50.1 µM.
`O=C(O)CSc1nnc(-c2cccc(S(=O)(=O)N3CCCCC3)c2)o1` was tested, and the Potency was inconclusive: 89.1 µM [inhibitor, single point].
In the case of `OCC1CCCCN1C(=S)Nc1ccc(Cl)cc1Cl` (centres undefined), the Potency is reported as inconclusive: 28.2 µM [inhibitor, full curve].
For `Cc1cc(-c2csc(NC(=O)c3ccc(=O)n(C)n3)n2)c(C)n1CC1CCCO1` (centres undefined), the Potency was inconclusive: 50.1 µM [inhibitor, partial curve, poor fit].
With `C/C(N)=C(/C#N)C(=O)COC(=O)c1cc(C)n(-c2ccc(F)cc2)c1C` the activity, negative = inhibition was inconclusive: -68.9% [inhibitor].
With `O=C(O)CCc1ccc(-c2ccccc2)n1-c1cccc(O)c1` the activity, negative = inhibition was inconclusive: -65.3% [inhibitor].
With `C=CCc1ccccc1OCC(O)CN1CCN(c2ccc(C)cc2)CC1` (centres undefined) the Potency was active: 12.6 µM.
For `Cc1ccc2nc(N/N=C/c3ccco3)cc(C)c2c1`, the Potency was inconclusive: 50.1 µM [inhibitor, partial curve].
With `C=CCNC(=O)c1cc2c(=O)n3ccccc3nc2s1` the Potency was “inactive”.
For `Cc1c(Cl)cccc1NC(CC(=O)c1ccccc1)C(=O)O` (centres undefined), the Potency was inconclusive: 17.8 µM [inhibitor, partial curve, poor fit].
For `CN(C)CCCN(C(=O)c1ccc2c(c1)CCCC2)c1nc2c(F)cccc2s1`, the Potency was inconclusive: 28.2 µM [inhibitor, single point].
For `S=C(NC1CCCCC1)N(CCc1nc2ccccc2[nH]1)C1CCCC1`, the Potency was inconclusive: 25.1 µM [inhibitor, single point].
In the case of `O=C(NCCC(=O)N1CCC2(CC1)NCCc1[nH]cnc12)c1cccc(Br)c1`, the Potency is reported as inconclusive: 79.4 µM [inhibitor, single point].
For `O=C(NC1CCN(C(=S)NCCc2ccccc2)CC1)C1CCCCC1`, the Potency was “inactive”.
`O=C(NCc1ccco1)c1cccs1` was tested, and the Potency was active: 39.8 µM.
`CCOC(=O)c1sc2ccccc2c1S(=O)(=O)Nc1cccc(C(F)(F)F)c1` was tested, and the Potency was inconclusive: 28.2 µM [inhibitor, partial curve, poor fit].
For `Cc1ccc(S(=O)(=O)N2CCN(C(=O)N(C)C)CC2)cc1`, the Potency was “inactive”.
For `C(=Nc1ccc(Nc2ccccc2)cc1)c1ccc2ccccc2c1`, the Potency was active: 1.58 µM.
For `O=C(Nc1c(-c2ccccc2)nc2ccc(Cl)cn12)c1cccs1`, the Potency was inconclusive: 79.4 µM [inhibitor, single point].
With `O=C(COC(=O)CCCSc1nc2ccccc2[nH]1)Nc1ccc(Cl)cc1` the Potency was inconclusive: 31.6 µM [inhibitor, single point].
In the case of `Cc1ccc(N=c2c([N+](=O)[O-])nn(-c3ccc(Cl)cc3)n2O)cc1C`, the Potency is reported as active: 10 µM.
For `COc1ccc(-c2cccc(NS(=O)(=O)c3cccc([N+](=O)[O-])c3)c2)nn1`, the Potency was inconclusive: 79.4 µM [inhibitor, single point].
`COc1ccc(-c2nnc(SCC(=O)Oc3c(C)cccc3C)o2)cc1OC` was tested, and the Potency was inconclusive: 39.8 µM [inhibitor, partial curve, poor fit].
For `O=C(O)C(c1ccccc1)N1C(=O)/C(=C\c2ccc(-c3ccc(Br)cc3)o2)SC1=S` (centres undefined), the Potency was active: 39.8 µM.
With `Cc1oc(-c2cccc(Cl)c2)nc1CN1CCCC(C(=O)NCc2ccc(F)cc2)C1` (centres undefined) the Potency was inconclusive: 12.6 µM [inhibitor, partial curve, poor fit].
In the case of `O=C(c1cc(COc2ccc(F)cc2F)on1)N1CCN(C(=O)c2ccco2)CC1`, the Potency is reported as inconclusive: 79.4 µM [inhibitor, single point].
`CC(=O)c1c(C)[nH]c(C(=O)CN2CCN(S(=O)(=O)c3ccccc3[N+](=O)[O-])CC2)c1C` was tested, and the Potency was inconclusive: 31.6 µM [inhibitor, single point].
`O=C(Nc1ccc(Br)cc1Cl)c1ccc2c(=O)n3c(nc2c1)CCC3` was tested, and the Potency was inconclusive: 50.1 µM [inhibitor, partial curve].
For `Nn1c(SCC(=O)N2CCOCC2)nnc1C1CC1`, the Potency was inconclusive: 39.8 µM [inhibitor, single point].
With `CCOC(=O)C1=C(CS(=O)(=O)c2ccccc2)NC(=O)NC1c1cccc(OC)c1` (centres undefined) the Potency was inconclusive: 89.1 µM [inhibitor, partial curve, poor fit].
With `Cc1n[nH]c(=O)c2c(NC(=O)COC(=O)c3cc(F)cc(F)c3)oc(C)c12` the Potency was active: 44.7 µM.
With `O=C(Cn1c(Cc2ccccc2)nc2ccccc21)NCc1ccc2c(c1)OCO2` the Potency was “inactive”.
In the case of `CCOC(=O)/C(C#N)=C/C=C1/C=CC=CN1C`, the Potency is reported as inconclusive: 39.8 µM [inhibitor, partial curve].
`COC(=O)c1cc(OC)c(OC)cc1NC(=O)CC1CCCCC1` was tested, and the Potency was inconclusive: 15.8 µM [inhibitor, partial curve, poor fit].
With `N#Cc1ccc(CN2CCN(C(=O)c3cn(Cc4ccccc4)nc3-c3cccnc3)CC2)cc1` the Potency was inconclusive: 39.8 µM [inhibitor, single point].
